Inconclusive results, whose numbers are uncertain, are shown with a selection of clear calls. No potency is given beside an inconclusive call; the fits are too rough. The source made the active and inactive calls. Calls follow the shape of the dose curve; as a rule, active = well fitted cell-killing curve with a large enough effect in the repeat runs; inconclusive = weak or mixed curves, or effect the other way; inactive = flat fitted curve, though single readings scatter.
Assay: qHTS assay to identify small molecule antagonists of the estrogen receptor alpha (ER-alpha) signaling pathway using the BG1 cell line in the presence of 0.1 nM 17-beta-estradiol - cell viability counter screen (AID 1259241); also: nearly all actives have a fitted effect of over 40% in size
Conditions: VM7Luc4E2 (BG1) viability, CellTiter-Fluor protease, 22 h, 0.1 nM estradiol agonist added; series mostly up to 92.4 µM
Text: National Center for Advancing Translational Sciences [NCATS]
NIH Chemical Genomics Center [NCGC]
U.S. Environmental Protection Agency [EPA]
National Institutes of Environmental Health Sciences [NIEHS]
National Toxicology Program [NTP]
U.S. Food and Drug Administration [FDA]
Estrogen receptor (ER), a member of the nuclear hormone receptor plays an important role in development, metabolic homeostasis and reproduction. Two subtypes of ER, ER-alpha and ER-beta, have similar expression patterns with some uniqueness in both types. Endocrine disrupting chemicals (EDCs) and their interactions with steroid hormone receptors like ER causes disruption of normal endocrine function. Therefore, it is important to understand the effect of environmental chemicals in ER signaling pathway. For identifying ER antagonists, VM7Luc4E2 cell line was used to screen against Tox21 compound libraries.
VM7Luc4E2 cell line (provided by Denison MS, University of California) endogenously express full-length ER-alpha and is stably transfected with a plasmid containing four estrogen responsive elements (ERE) upstream of a luciferase reporter gene. The current screening for identification of ER-alpha inhibitors against Tox21 compound libraries used lower concentration (0.1 nM) of 17beta-Estradiol as a stimulator. The cytotoxicity of the Tox21 compound libraries against VM7Luc4E2 cell line was tested by measuring live-cell protease activity using CellTiter-Fluor assay in the same wells.
Tox21 Assay Protocol Summary:
VM7Luc4E2 cells were cultured in phenol red free assay medium containing 10% charcoal stripped FBS for 5 days prior to the assay. The cells were dispensed at 4,000 cells/well in 4 uL of assay medium into white wall/solid-bottom 1536-well plates (Corning Life Sciences, Corning, NY) using a Multidrop Combi (ThermoFisher Scientific, Waltham, MA) dispenser. After the assay plates were incubated at 37C and 5% CO2 for 24 hr, 23 nL of compounds dissolved in DMSO, positive controls or DMSO only was transferred to the assay plates by a Pintool station (Kalypsys, San Diego, CA). The transfer of compounds was followed by the addition of 1 uL of 0.1 nM (final concentration) agonist (17beta-Estradiol)/assay medium using a Flying Reagent Dispenser (FRD, Aurora Discovery, San Diego, CA). The plates were incubated at 37C and 5% CO2 for 22 hr. For cytotoxicity assay, 1 uL of CellTiter-Fluor reagent (Promega Corporation, Madison, WI) was added to each well using the FRD and after 30 min incubation at 37C and 5% CO2, The fluorescence intensity was measured using ViewLux plate reader (PerkinElmer, Shelton, CT).
Potency is read from the fitted curve at half-maximal effect; tags tell the direction and shape of the fitted curve.

Structure (SMILES) | Potency
Oc1ccc(C2(c3ccc(O)c(C4CCCCC4)c3)CCCCC2)cc1C1CCCCC1 | inconclusive [cytotoxic, single point]
CC(C)=CCC/C(C)=C\C#N | inconclusive [rising, partial curve, poor fit]
CCCCCCCCS(=O)(=O)Cl | inactive
O=C1CCC(C2CCCCC2)CC1 | inactive
NC(N)=N/N=C/c1c(Cl)cccc1Cl | inconclusive [cytotoxic, partial curve]
CCN(CC)CCOC(=O)C(c1ccccc1)C1CCCCC1 (stereo not given) | inconclusive [cytotoxic, partial curve, poor fit]
Cn1c(=O)c2c(ncn2CC(=O)O)n(C)c1=O | inactive
Nc1ccc(C(=O)Oc2ccccc2)c(O)c1 | inactive
CC(C)O.CC(C)O.CCOC(=O)/C=C(\C)O.CCOC(=O)/C=C(\C)O.[Ti] | inactive
CCOc1cc(OCC)c(C(C)=O)cc1OCC | inconclusive [cytotoxic, partial curve]
CO[Si](CCCS)(OC)OC | inactive
COc1ccc(OC)c(N=Nc2c(O)ccc3ccccc23)c1 | active: 9.69 µM
CC(C)CCCCCCCOC(=O)c1ccc(C(=O)OCCCCCCCC(C)C)c(C(=O)OCCCCCCCC(C)C)c1 | inactive
Cc1c(Cl)c(=O)oc2cc(O)ccc12 | inconclusive [rising, partial curve]
CCO[Si](CCCN=C=O)(OCC)OCC | inconclusive [cytotoxic, single point]
CCO[Si](CCC#N)(OCC)OCC | inconclusive [cytotoxic, partial curve, poor fit]
Cc1ccc2c(Cl)cc(Cl)c(O)c2n1 | inactive
O=S(=O)(Oc1ccc(Cl)cc1)c1ccccc1 | inactive
S=C([S-])NCCNC(=S)[S-].[Mn+2] | inactive
CC1=NN(c2cc(Cl)c(S(=O)(=O)O)cc2Cl)C(=O)C1N=Nc1ccc(S(=O)(=O)O)cc1 (stereo not given) | inconclusive [cytotoxic, single point]

Structure (SMILES) | Potency
CCOC(=O)C1=NN(c2ccc(Cl)cc2Cl)C(C)(C(=O)OCC)C1 (stereo not given) | inactive
CC[C@H]1CC[C@H](NCc2cc3c(cc2OC)[C@H]2C[C@H]2C(=O)N3C)[C@H](c2ccccc2)N1 | inconclusive [cytotoxic, partial curve]
Cc1nc2ccccc2n1Cc1ccc(Cl)cc1 | inconclusive [cytotoxic, full curve]
C/C(Cl)=C/CCl | inactive
CCN(CC)CCNc1ccc(CNC=O)c2sc3ccc(OC)cc3c(=O)c12 | active: 4.33 µM
F[B-](F)(F)F | inconclusive [cytotoxic, single point]
Cc1ccc(/C(=C\CN2CCCC2)c2ccccn2)cc1 | inconclusive [cytotoxic, single point]
Cc1cc2c(s1)Nc1ccccc1N=C2N1CCN(C)CC1 | active: 13.3 µM
O=[N+]([O-])c1ccc(NCCO)c(OCCO)c1 | active: 54.5 µM
O=[N+]([O-])c1ccc(O)cc1C(F)(F)F | active: 48.6 µM
COc1ccc(N)c(OC)c1 | inconclusive [cytotoxic]
CCCCCC/C=C/C=O | inconclusive [rising, partial curve, poor fit]
COc1cccc(N(C)C(=S)Oc2ccc3c(c2)CCCC3)n1 | inactive
NC[C@H](O)c1ccc(O)c(O)c1 | inconclusive [cytotoxic, partial curve]
C=CCOc1c(Br)cc(Br)cc1Br | inactive
CO[Si](CCCn1c(=O)n(CCC[Si](OC)(OC)OC)c(=O)n(CCC[Si](OC)(OC)OC)c1=O)(OC)OC | inactive
CSc1ccc(O)cc1C | inconclusive [cytotoxic, single point]
CN(C)C(=O)C(CCN1CCC(O)(c2ccc(Cl)cc2)CC1)(c1ccccc1)c1ccccc1 | inconclusive [cytotoxic, partial curve, poor fit]
O=C(c1ccc(O)cc1)c1ccc(O)c(O)c1O | inconclusive [cytotoxic, partial curve]
O=[N+]([O-])c1cc[n+]([O-])cc1 | inconclusive [cytotoxic, single point]
